# ± gives the standard deviation of the averaged measurements. The list shows a part of the results.
# System: PfAP2-I AP2 domain 3 (GST-tagged)
# Test: gcPBM binding intensity (ln(normalized median fluorescence intensity)); higher = stronger DNA binding
# Method in brief: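 Alexa488 anti-GST antibody, scanned at 488 nm, detected GST-tagged P. falciparum DNA-binding domains that had been expressed in E. coli and incubated for 1 h on an Agilent 4 × 180k array. The array carried primer-extended double-stranded 36-bp intergenic genomic probes and negative controls. Binding intensity is the highest Masliner-normalised natural-log median intensity across replicate spots of either orientation of each probe.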
row,Sequence,gcPBM binding intensity (ln)
1,ATATATATATATAAAAGTACTTATTTTTATTTACAT [XGTACX_site4299],9.07 ± 0.35
2,GAGAGTACCTATATTGCATGCAGACTTTTTAAATAT [TGCATGCA_site564],8.1 ± 0.71
3,TAAAATAAAAATTTATGTACACATAAAAAAACAAAA [XGTACX_site1112],7.97 ± 0.62
4,GTTAAAATAATATGGTGTACAAATATATAAGTTCAT [XGTACX_site3262],8.14 ± 0.65
5,TTTTTTTTTTTTTGTAGTACATTATGTATATTTTTA [XGTACX_site7810],8 ± 0.51
6,TTAATAAGAGAGCAATAGGTGGACTGTTTCTTTTAT [CACACA_negctrl_site1239],7.84 ± 0.6
7,GTGCCCTTTTTAATAACATGCAAATAACATATTTAT [TGCATGCA_site709],8.55 ± 0.28
8,AAAAAAAAAAAAAACACACAAACATCAAATTATTAT [CACACA_site1838],8.13 ± 0.59
9,AATTAGATGGATAAATGTACATATGTGAATATATTT [XGTACX_site85],7.95 ± 0.62
10,ATATAACACAAGGGCACACATATACCTTTCCTTTTT [CACACA_site412],8.44 ± 0.54
11,TTTATATTATACGCACTAATATATATATATATATAT [TGCATGCA_negctrl_site47],9.66 ± 0.35
12,GTAATATATATTAAGTAATAGTTTATCTTAGGAAAA [TGCATGCA_negctrl_site302],7.42 ± 0.67
13,ATCTTATATCGTAGAGATTTTTTTTTTTTTTCATTT [XGTACX_negctrl_site140],7.21 ± 0.46
14,AATTTCTTCTTAGGGTGTACAATTTGACATAAGGAA [XGTACX_site1773],8.23 ± 0.28
15,TACTTATATTGAAATGGTACAGATAAAAAAAAAAAA [XGTACX_site1407],8.02 ± 0.59
16,TTTTGTAATGTGAATATTTGTATATTATTTGTATAT [CACACA_negctrl_site1677],7.61 ± 0.5
17,ACATTCTATCTAAGTACACACATTAATTTTTTTTTT [CACACA_site4106],8.12 ± 0.49
18,TAATATTTTTTGTGTACACATATATATATATATATA [CACACA_site5504],9.35 ± 0.34
19,AATTTACATATATATTGTACATTTATGTATATATAT [XGTACX_site4186],8.1 ± 0.47
20,GATATAGGGCGTATGTTAATCGTGAAAGAGTGTCTT [GTGCAC_negctrl_site102],8.13 ± 0.69
21,TTCAAATGATTTATGTGTACATAAAATTATTTTTTA [XGTACX_site107],7.47 ± 0.16
22,ATAAAGAATATAAATACACACTTAAATATAGATTAT [CACACA_site7804],7.6 ± 0.45
23,ATTGGTTCCCCTCTCTTTTCAATATATTTTTTTTTT [XGTACX_negctrl_site259],7.82 ± 0.47

row,Sequence,gcPBM binding intensity (ln)
1,TAATGAAGCTTATGCACACGTTCATTATTTATATTA [CACACA_site3219],9.6 ± 0.45
2,AAAAAATTAAAAATCACACATAAATATATATAAAAA [CACACA_site4192],7.53 ± 0.67
3,ATATTACAGTACAATACATGCATATGGAAAAAAAAA [TGCATGCA_site72],8.02 ± 0.44
4,TGTAGAACTCAATATTGTACATTATATAAAATGGGA [XGTACX_site3857],7.83 ± 0.54
5,TTTAAATATATATATTGTACAAAAAAAAATAATAAA [XGTACX_site4759],7.93 ± 0.53
6,ATAAAATTTATGACTTGTACATGTAAATAAAATATA [XGTACX_site762],7.84 ± 0.28
7,TTTTTTTGCATTTCATGTACATATATTGAGCTTAAA [XGTACX_site8485],8.24 ± 0.71
8,ATATATATATATTGTACACACATTTATGCATATATA [CACACA_site5738],9.28 ± 0.16
9,GCCTTTTAGTATTTCACACACGTAAATGAGTATATC [CACACA_site4748],8.13 ± 0.56
10,CTTCTTGTAAAATTTGCATGTAATTAAAAGAGAATG [TGCATGCA_site484],7.88 ± 0.67
11,TTCCCTATCTTTTCAGTGCATTTTGTTTCCTACCTT [GTGCAC_site9813],9.77 ± 0.47
12,AAGATAAATTATTATAAATCAATTGTGCCAACAATA [CACACA_negctrl_site144],7.99 ± 0.39
13,TTTTTTTTGTGTTCAAGTACAAAATTTTAAAGGTCA [XGTACX_site4011],7.74 ± 0.28
14,TATATATATATATAAGCACACAAACAAAAAAAATTA [CACACA_site9293],9.36 ± 0.18
15,GGTTATTTCACAGAATGTACTTATTATATATAAAAT [XGTACX_site8886],7.89 ± 0.4
16,TATAAAAATATTTCTACACACATTAAAATATATATA [CACACA_site4770],7.67 ± 0.59
17,CATTTGCCCAGGCACACACACATAAAAAGAAAAATA [CACACA_site356],7.89 ± 0.47
18,AATGAAAGGATGCTGTGTACATATATATATATATAT [XGTACX_site7901],9.49 ± 0.35
19,TGGTCTTTTAAACAAAAATATAAATTTTTAAATATG [CACACA_negctrl_site392],7.47 ± 0.45
20,AATTTAATATAATGCACACATAAAAAAAAAAAATTC [CACACA_site1504],11 ± 0.61
21,AGCTTGTGGATGCAGGTGCTACATTTGTTCTATAAT [GTGCAC_site9645],8.86 ± 0.38
22,AAGAAAATTGTCTGAAGTACAAAACATTAATAATAT [XGTACX_site4864],7.77 ± 0.62
23,CATATTATTATTTTGGTGCATACTTATATATATTTT,9.53 ± 0.085

row,Sequence,gcPBM binding intensity (ln)
1,GTACCTATTTCATACACACACACACCCAAACAAACA [CACACA_site976],8.57 ± 0.35
2,GAAACAATTTGATATTGTACATAAATAAATAAAAAC [XGTACX_site8869],8.27 ± 0.49
3,AACATTGATAAATATAAACACACGAAAACAGACATA [CACACA_site490],8.05 ± 0.64
4,TAATTTTTTTTAATAACACACATATAAATATAAATA [CACACA_site6521],7.66 ± 0.42
5,CATTTGCACCCGCACACACACATAAAAAGAAAAATA [CACACA_site4350],10.7 ± 0.8
6,CTTGTACCTAGAAATACACACAATTCTATAACTTAT [CACACA_site7355],7.86 ± 0.31
7,AATGTGTAGACACGCACACACAAAAAAATATATATA [CACACA_site5595],8.12 ± 0.79
8,AATGTAGAAATGGGTGCACACACATATATAATATAT [CACACA_site8799],10.3 ± 0.26
9,GTTTTATTTTCAATGTGTACTTATTATTTGATATAC [XGTACX_site6402],8.21 ± 0.4
10,GATCCATTATTGATCCGTACTTATTCATGTTATATA [XGTACX_site5946],7.83 ± 0.54
11,TGTTATAAGATTTATGTACACACATATACACCCCTC [CACACA_site8141],8.545 ± 0.078
12,TATATATATATATGTATGCACTTTAATTTTATAAGG,9.85 ± 0.26
13,TATATATGTATATATACACACAACGGTTATAAATAT [CACACA_site1128],7.96 ± 0.6
14,AATATAAATAAAAACACACACACACCGATATATATA [CACACA_site5283],8.26 ± 0.86
15,AAGATTAGGTTAATTAGTACTTATTATATTGTAATG [XGTACX_site3653],7.49 ± 0.37
16,CATACATTTAAAAAGTGTACGTATATGAAAAAAGGA [XGTACX_site6512],8.05 ± 0.57
17,ACCTTTGTAGTTGGTCCACACACATATATGGAAGAA [CACACA_site8351],8.29 ± 0.33
18,ACATATATATAATATATATATCATCATATTTTCTTA [CACACA_negctrl_site853],7.56 ± 0.61
19,TGTGTGTGTATATGTGTGCACATATAAAATAGAAGA [GTGCAC_site9714],10.23 ± 0.021
20,ATATGTGTTATTTATACATGCAGAAGAATATCTATT [TGCATGCA_site828],7.93 ± 0.62
21,CTCAATATTATTACTACACACAAATTAAAATTTTCC [CACACA_site4203],7.92 ± 0.47
22,AGAGAATAAATATAAAGTACATATATAAATATATAT [XGTACX_site5055],7.71 ± 0.47
23,GTATATAAAAATTCATGTACATATTATTATTTTTAA [XGTACX_site658],8.07 ± 0.42

row,Sequence,gcPBM binding intensity (ln)
1,ATGTTATAAATCTTAATATATATATGCAAAAGAGAA [XGTACX_negctrl_site521],8.75 ± 0.75
2,ACATATACAAAACACACACACAACGTTTTAATAAAT [CACACA_site1979],8.17 ± 0.35
3,TTATAACTTTTGAGCACACACAAGCATATAAATATA [CACACA_site6933],8.24 ± 0.18
4,TTGTACATCTTTTGCACACGTAATGTTATTATAATA [CACACA_site1258],9.45 ± 0.014
5,AAATACTGTAAAAAAGCATGCCACTAATAATAATTA [TGCATGCA_site759],7.62 ± 0.67
6,TCATTTTTTTGTTTGGTGCGACTTGAAAATTTGATT,8.43 ± 0.42
7,ATATAGATTCGACACACACACAAAAAAAAAAAAAAA [CACACA_site7677],8.03 ± 0.37
8,GTACCTATTTCATACACACACACACGCAAACAAACA [CACACA_site6590],8.6 ± 0.43
9,TGGTATATTATTTTTTGTACACATAAATGAAACATT [XGTACX_site5345],8.04 ± 0.22
10,CGTATATCACCAACTAGTACATATAAATAAATAAAT [XGTACX_site8837],7.92 ± 0.5
11,ATATATATAATAAACACACACATATACATAGATGTA [CACACA_site5841],8.28 ± 0.52
12,ATATATATATATATATGTACATATTATTATTTTGAT [XGTACX_site4752],9.22 ± 0.49
13,GTATATGTACTATACGCACACACACCCACATATATA [CACACA_site9062],8.57 ± 0.38
14,ATATATATTATATGCACACTAATAAGACTATTTAAA [CACACA_site3554],9.63 ± 0.22
15,TTATAATATTCATAAGGTACAGTTTATATATGTTAT [XGTACX_site8442],7.76 ± 0.49
16,TTGAGTTGTATAAAAAGTACAAGGTTTTAACTAAAT [XGTACX_site1447],7.93 ± 0.54
17,AATAATCATGATCAAAGTACGTATGATTAAAAAAAA [XGTACX_site4916],7.78 ± 0.71
18,TATGACCTTAGTAATTGTACACAAACATATTAATAT [XGTACX_site3340],7.84 ± 0.5
19,GAGTATATGATATATATATATATATAAAAAAAAAAA [GTGCAC_negctrl_site99],7.92 ± 0.58
20,TATATGTAAATGGACACACACATATATATATATATA [CACACA_site3659],9.33 ± 0.47

# — the supplement of paper PMC11417369
